# Assay results taken from the supplement of paper PMC8728848.
# The list shows a part of the results.
# B1: Dectin2 (Homo sapiens), Q6EIG7 (protein)
# chain: MMQEQQPQSTEKRGWLSLRLWSVAGISIALLSACFIVSCVVTYHFTYGETGKRLSELHSYHSSLTCFSEGTKVPAWGCCPASWKSFGSSCYFISSEEKVWSKSEQNCVEMGAHLVVFNTEAEQNFIVQQLNESFSYFLGLSDPQGNNNWQWIDKTPYEKNVRFWHLGEPNHSAEQCASIVFWKPTGWGWNDVICETRRNSICEMNKIYL
# Experiments:
# Experiment in all cases: glycan array binding signal (z-score within array); higher = stronger binding
# Conditions in all cases: glycan notation: IUPAC condensed, linker removed
# [1] = molecular target: Fuc(a1-2)Gal
# Outline: (§1)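 Negative Z-scores can be read as non-binding. The Z-score is calculated within each array and then averaged across arrays of one protein sequence at different concentrations or buffers and across linkers. Arrays, 3228 in all, were curated from the Consortium for Functional Glycomics database and kept only where the protein sequence was available.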
# [2] = molecular target: Fuc(a1-2)Gal(b1-3)GalNAc
# Outline: as §1
# [3] = molecular target: Fuc(a1-2)Gal(b1-3)GalNAc(a1-3)[Fuc(a1-2)]Gal(b1-4)Glc
# Outline: as §1
# [4] = molecular target: Fuc(a1-2)Gal(b1-3)GalNAc(a1-3)[Fuc(a1-2)]Gal(b1-4)GlcNAc
# Outline: as §1
# [5] = molecular target: Fuc(a1-2)Gal(b1-3)GalNAc(b1-3)Gal
# Outline: as §1
# [6] = molecular target: Fuc(a1-2)Gal(b1-3)GalNAc(b1-3)Gal(a1-4)Gal(b1-4)Glc
# Outline: as §1
# [7] = molecular target: Fuc(a1-2)Gal(b1-3)GalNAc(b1-4)[Neu5Ac(a2-3)]Gal(b1-4)Glc
# Outline: as §1
# [8] = molecular target: Fuc(a1-2)Gal(b1-3)GlcNAc
# Outline: as §1
# [9] = molecular target: Fuc(a1-2)Gal(b1-3)GlcNAc(b1-2)Man(a1-3)[Fuc(a1-2)Gal(b1-3)GlcNAc(b1-2)Man(a1-6)]Man(b1-4)GlcNAc(b1-4)GlcNAc
# Outline: as §1
# [10] = molecular target: Fuc(a1-2)Gal(b1-3)GlcNAc(b1-2)Man(a1-3)[Fuc(a1-2)Gal(b1-3)GlcNAc(b1-2)Man(a1-6)]Man(b1-4)GlcNAc(b1-4)[Fuc(a1-6)]GlcNAc
# Outline: as §1
# [11] = molecular target: Fuc(a1-2)Gal(b1-3)GlcNAc(b1-3)Gal(b1-4)Glc
# Outline: as §1
# [12] = molecular target: Fuc(a1-2)Gal(b1-3)GlcNAc(b1-3)GalNAc
# Outline: as §1
# [13] = molecular target: Fuc(a1-2)Gal(b1-3)GlcNAc(b1-3)[Fuc(a1-2)Gal(b1-3)GlcNAc(b1-6)]GalNAc
# Outline: as §1
# [14] = molecular target: Fuc(a1-2)Gal(b1-3)GlcNAc(b1-3)[Gal(b1-4)GlcNAc(b1-6)]Gal(b1-4)Glc
# Outline: as §1
# [15] = molecular target: Fuc(a1-2)Gal(b1-3)GlcNAc(b1-3)[Neu5Ac(a2-6)Gal(b1-4)GlcNAc(b1-6)]Gal(b1-4)Glc
# Outline: as §1
# [16] = molecular target: Fuc(a1-2)Gal(b1-3)GlcNAc6S
# Outline: as §1
# [17] = molecular target: Fuc(a1-2)Gal(b1-3)[Fuc(a1-4)]GlcNAc
# Outline: as §1
# [18] = molecular target: Fuc(a1-2)Gal(b1-3)[Fuc(a1-4)]GlcNAc(b1-2)Man(a1-3)[Fuc(a1-2)Gal(b1-3)[Fuc(a1-4)]GlcNAc(b1-2)Man(a1-3)]Man(b1-4)GlcNAc(b1-4)GlcNAc
# Outline: as §1
# [19] = molecular target: Fuc(a1-2)Gal(b1-3)[Fuc(a1-4)]GlcNAc(b1-2)Man(a1-3)[Fuc(a1-2)Gal(b1-3)[Fuc(a1-4)]GlcNAc(b1-2)Man(a1-6)]Man(b1-4)GlcNAc(b1-4)[Fuc(a1-6)]GlcNAc(b1-4)[Fuc(a1-6)]GlcNAc
# Outline: as §1
# [20] = molecular target: Fuc(a1-2)Gal(b1-3)[Fuc(a1-4)]GlcNAc(b1-3)[Fuc(a1-3)[Gal(b1-4)]GlcNAc(b1-6)]Gal(b1-4)Glc
# Outline: as §1
# [21] = molecular target: Fuc(a1-2)Gal(b1-3)[Fuc(a1-4)]GlcNAc(b1-3)[Gal(b1-4)GlcNAc(b1-6)]Gal(b1-4)Glc
# Outline: as §1
# [22] = molecular target: Fuc(a1-2)Gal(b1-4)Fuc(a1-3)]GlcNAc(b1-2)Man(a1-3)[Fuc(a1-2)Gal(b1-4)[Fuc(a1-3)]GlcNAc(b1-2)Man(a1-6)]Man(b1-4)GlcNAc(b1-4)GlcNAc
# Outline: as §1
# [23] = molecular target: Fuc(a1-2)Gal(b1-4)Glc
# Outline: as §1
# [24] = molecular target: Fuc(a1-2)Gal(b1-4)Glc6S
# Outline: as §1
# [25] = molecular target: Fuc(a1-2)Gal(b1-4)GlcNAc
# Outline: as §1
# [26] = molecular target: Fuc(a1-2)Gal(b1-4)GlcNAc(b1-2)Man
# Outline: as §1
# [27] = molecular target: Fuc(a1-2)Gal(b1-4)GlcNAc(b1-2)Man(a1-3)[Fuc(a1-2)Gal(b1-4)GlcNAc(b1-2)Man(a1-6)]Man(b1-4)GlcNAc(b1-4)GlcNAc
# Outline: as §1
# [28] = molecular target: Fuc(a1-2)Gal(b1-4)GlcNAc(b1-2)Man(a1-3)[Fuc(a1-2)Gal(b1-4)GlcNAc(b1-2)Man(a1-6)]Man(b1-4)GlcNAc(b1-4)[Fuc(a1-6)]GlcNAc
# Outline: as §1
# [29] = molecular target: Fuc(a1-2)Gal(b1-4)GlcNAc(b1-2)[Fuc(a1-2)Gal(b1-4)GlcNAc(b1-4)]Man(a1-3)[Fuc(a1-2)Gal(b1-4)GlcNAc(b1-2)Man(a1-6)]Man(b1-4)GlcNAc(b1-4)GlcNAc
# Outline: as §1
# [30] = molecular target: Fuc(a1-2)Gal(b1-4)GlcNAc(b1-3)Gal(b1-4)GlcNAc
# Outline: as §1
# [31] = molecular target: Fuc(a1-2)Gal(b1-4)GlcNAc(b1-3)Gal(b1-4)GlcNAc(b1-2)Man(a1-3)[Fuc(a1-2)Gal(b1-4)GlcNAc(b1-3)Gal(b1-4)GlcNAc(b1-2)Man(a1-6)]Man(b1-4)GlcNAc(b1-4)GlcNAc
# Outline: as §1
# [32] = molecular target: Fuc(a1-2)Gal(b1-4)GlcNAc(b1-3)Gal(b1-4)GlcNAc(b1-3)Gal(b1-4)GlcNAc
# Outline: as §1
# [33] = molecular target: Fuc(a1-2)Gal(b1-4)GlcNAc(b1-3)GalNAc
# Outline: as §1
# [34] = molecular target: Fuc(a1-2)Gal(b1-4)GlcNAc(b1-3)[Fuc(a1-2)Gal(b1-4)GlcNAc(b1-6)]GalNAc
# Outline: as §1
# [35] = molecular target: Fuc(a1-2)Gal(b1-4)GlcNAc(b1-3)[Fuc(a1-3)[Gal(b1-4)]GlcNAc(b1-6)]Gal(b1-4)Glc
# Outline: as §1
# [36] = molecular target: Fuc(a1-2)Gal(b1-4)GlcNAc(b1-6)GalNAc
# Outline: as §1
# [37] = molecular target: Fuc(a1-2)Gal(b1-4)GlcNAc6S
# Outline: as §1
binder,measurement,setting,value
B1,glycan array binding signal (z-score),[1],-0.122
same,glycan array binding signal (z-score),[2],-0.152
same,glycan array binding signal (z-score),[3],-0.162
same,glycan array binding signal (z-score),[4],-0.189
same,glycan array binding signal (z-score),[5],-0.163
same,glycan array binding signal (z-score),[6],-0.13
same,glycan array binding signal (z-score),[7],-0.158
same,glycan array binding signal (z-score),[8],-0.127
same,glycan array binding signal (z-score),[9],0.261
same,glycan array binding signal (z-score),[10],-0.103
same,glycan array binding signal (z-score),[11],-0.145
same,glycan array binding signal (z-score),[12],-0.184
same,glycan array binding signal (z-score),[13],-0.095
same,glycan array binding signal (z-score),[14],-0.199
same,glycan array binding signal (z-score),[15],-0.182
same,glycan array binding signal (z-score),[16],-0.128
same,glycan array binding signal (z-score),[17],-0.111
same,glycan array binding signal (z-score),[18],0.104
same,glycan array binding signal (z-score),[19],0.006
same,glycan array binding signal (z-score),[20],-0.181
same,glycan array binding signal (z-score),[21],-0.146
same,glycan array binding signal (z-score),[22],0.975
same,glycan array binding signal (z-score),[23],-0.165
same,glycan array binding signal (z-score),[24],0.189
same,glycan array binding signal (z-score),[25],-0.158
same,glycan array binding signal (z-score),[26],-0.145
same,glycan array binding signal (z-score),[27],0.093
same,glycan array binding signal (z-score),[28],0.091
same,glycan array binding signal (z-score),[29],0.039
same,glycan array binding signal (z-score),[30],-0.168
same,glycan array binding signal (z-score),[31],-0.017
same,glycan array binding signal (z-score),[32],-0.168
same,glycan array binding signal (z-score),[33],-0.178
same,glycan array binding signal (z-score),[34],-0.156
same,glycan array binding signal (z-score),[35],-0.054
same,glycan array binding signal (z-score),[36],-0.144
same,glycan array binding signal (z-score),[37],0.311
